In all, about 33,000 sequences were measured (“E-score (-0.5 to 0.5)”: median about -0.043, highest 2% from about 0.37 on). Some of the results follow.
Biological target: T1, Upc2 (UniProt Q12151)
T1 sequence: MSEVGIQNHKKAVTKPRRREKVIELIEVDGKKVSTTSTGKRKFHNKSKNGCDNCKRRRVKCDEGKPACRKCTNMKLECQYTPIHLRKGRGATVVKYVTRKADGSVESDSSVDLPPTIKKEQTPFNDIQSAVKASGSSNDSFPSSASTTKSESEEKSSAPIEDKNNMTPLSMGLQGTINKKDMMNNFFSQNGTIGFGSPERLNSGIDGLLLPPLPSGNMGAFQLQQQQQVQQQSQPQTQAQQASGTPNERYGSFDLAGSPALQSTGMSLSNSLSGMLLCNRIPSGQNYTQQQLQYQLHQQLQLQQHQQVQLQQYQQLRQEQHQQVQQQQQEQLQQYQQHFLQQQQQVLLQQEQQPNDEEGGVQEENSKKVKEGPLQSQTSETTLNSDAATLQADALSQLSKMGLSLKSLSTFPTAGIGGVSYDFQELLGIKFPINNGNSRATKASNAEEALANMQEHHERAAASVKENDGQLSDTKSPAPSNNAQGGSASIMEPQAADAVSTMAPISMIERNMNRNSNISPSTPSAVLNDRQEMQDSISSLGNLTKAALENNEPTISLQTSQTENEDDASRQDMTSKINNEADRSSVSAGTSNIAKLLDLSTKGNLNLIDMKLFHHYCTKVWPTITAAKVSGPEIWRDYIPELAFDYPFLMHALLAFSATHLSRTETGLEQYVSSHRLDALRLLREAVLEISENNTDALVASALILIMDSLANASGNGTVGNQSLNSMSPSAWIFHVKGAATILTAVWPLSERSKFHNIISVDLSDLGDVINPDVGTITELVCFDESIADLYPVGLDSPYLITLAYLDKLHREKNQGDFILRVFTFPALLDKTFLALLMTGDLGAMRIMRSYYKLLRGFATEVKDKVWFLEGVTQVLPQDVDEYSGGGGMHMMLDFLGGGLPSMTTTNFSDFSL
Assay: PBM E-score (8-mer binding enrichment) (E-score (-0.5 to 0.5)); higher = stronger / more preferred TF binding; most listed sequences are background and not binding sites
Settings: protein concentration: 200 nM; construct: GST-full length
In short: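 Using PURExpress in vitro transcription/translation, GST-tagged yeast transcription factors were made in full-length or DNA-binding-domain form. These were applied at about 100-200 nM to double-stranded universal all-10-mer Agilent arrays, and bound protein was detected with fluorescent anti-GST. Scans were normalised with masliner before the Universal PBM Analysis Suite assigned E-scores to ungapped eight-base words pooled with their reverse complements.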

Row | Sequence | PBM E-score
1 | CCAAATAA | -0.00161
2 | ATGGTATG | -0.24
3 | AAATCAAG | 0.0576
4 | ACATGACA | -0.0942
5 | ACCTAACC | 0.105
6 | CCAATCTC | -0.145
7 | AGGGGGAC | -0.164
8 | ACCGCTTC | -0.203
9 | CCAGGTGA | -0.158
10 | TAGGGGGA | -0.194
11 | AACTGGTA | -0.0126
12 | TTTCAAAA | -0.0236
13 | TCAGCAGA | -0.0227
14 | AGTACACT | 0.0402
15 | GTTCCGAA | 0.192
16 | AACGAGGT | 0.448
17 | GTGTTTTA | 0.0465
18 | CCTCCGGA | -0.236
19 | CCGAGCAG | 0.0852
20 | AACACCAG | -0.223
21 | ATTAACCA | -0.195
22 | GGGCATGA | -0.214

Row | Sequence | PBM E-score
23 | ACGAGGCT | 0.406
24 | CTAATGGA | -0.112
25 | CTATATTC | 0.115
26 | CCCCGATC | -0.0699
27 | TAAGTGGA | 0.0993
28 | AGTCGCTG | -0.123
29 | ATTCAACC | -0.0794
30 | ACAGTAAG | 0.0279
31 | ATCTCCAA | -0.294
32 | CCGGAAGC | -0.113
33 | CGGTCTCA | -0.143
34 | GTCCCTCA | -0.141
35 | AGTTAAAT | -0.0797
36 | GTCAAGCA | -0.298
37 | ATCATCAA | -0.071
38 | ATTCTCTC | -0.0771
39 | TCGATGAA | -0.114
40 | TAACTGCA | -0.0611
41 | CTACAATA | -0.0112
42 | CGCTCGTA | 0.466
43 | AAGTGAGA | -0.0783
44 | GCTACAAC | -0.173

Row | Sequence | PBM E-score
45 | TAGCGGGA | -0.024
46 | GCAGGGGA | -0.184
47 | AGCCTGGC | -0.218
48 | CGGAACGC | 0.243
49 | GTAGCCCA | -0.137
50 | AGTAGACC | 0.0469
51 | CACCCCTA | -0.103
52 | CTGCCTGC | -0.227
53 | CGGACCTC | 0.0557
54 | GCTATAGA | -0.156
55 | CCGGAGTC | -0.217
56 | AGTTTAAC | 0.174
57 | GATGCGGC | -0.239
58 | CGAGACTA | 0.208
59 | CGCTTGGC | 0.0589
60 | CACCGCCG | 0.0447
61 | CAATATGA | 0.029
62 | GCTAAGAC | 0.00142
63 | CTGTATCC | -0.138
64 | CAAGCTCG | 0.173
65 | CCGTTGGC | -0.199
66 | ATAAACGC | 0.344

Row | Sequence | PBM E-score
67 | ATACCCTA | 0.0995
68 | AATCTCTA | 0.0874
69 | CGTTGCAA | 0.138
70 | TAAACCGA | 0.271
71 | AGGGCCAT | -0.179
72 | AGCCCTGC | -0.267
73 | GTTCGTCA | -0.0278
74 | CGTGGGGA | 0.00245
75 | CTAGGGCC | -0.167
76 | CCGATCAC | 0.102
77 | TACGGCTA | 0.231
78 | ATCGGTTC | 0.00873
79 | AGCCTTCC | -0.249
80 | CAGATGAG | -0.24
81 | CTCATGTC | -0.133
82 | GCAGGTGA | -0.376
83 | AACGGCTT | 0.14
84 | AGCCATGG | -0.192
85 | GCCTTTGA | -0.123
86 | GTAGTTAA | 0.0837
87 | ACTTAGGA | -0.131
88 | AGAGCTGG | -0.154

Row | Sequence | PBM E-score
89 | GGGGCCAA | -0.0411
90 | GACTGTAA | 0.067
91 | GGAGCCCA | -0.245
92 | ACCGGGAA | 0.0828
93 | GGGAGTAA | -0.194
94 | CTATTCAA | -0.0594
95 | AGGGGTAC | -0.00629
96 | GTGACACA | -0.126
97 | AGCTTGGC | -0.116
98 | ACTCATTG | -0.0542
99 | AGCACGCG | 0.0652
100 | AGTAGATG | -0.108
101 | CAGGCCAC | -0.223
102 | AGCTCCGA | 0.0699
103 | CGGGCCCG | 0.278
104 | CCGCTAAG | 0.00215
105 | CAGACGCG | -0.0848
106 | ACTCATGG | -0.157
107 | AGGGGCTG | -0.161
108 | ATTTCTTC | -0.026
109 | GCCTGTTA | -0.286
110 | AGATGAAG | -0.127
